# Results as given in the BET-seq Pho4 binding data (Le et al. 2018).
# The other results are listed elsewhere or left out. The energies were worked out here from pooled read counts, against the library average; single values are noisy.
# Target: T1, Pho4 (S. cerevisiae) (UniProt P07270)
# T1 sequence: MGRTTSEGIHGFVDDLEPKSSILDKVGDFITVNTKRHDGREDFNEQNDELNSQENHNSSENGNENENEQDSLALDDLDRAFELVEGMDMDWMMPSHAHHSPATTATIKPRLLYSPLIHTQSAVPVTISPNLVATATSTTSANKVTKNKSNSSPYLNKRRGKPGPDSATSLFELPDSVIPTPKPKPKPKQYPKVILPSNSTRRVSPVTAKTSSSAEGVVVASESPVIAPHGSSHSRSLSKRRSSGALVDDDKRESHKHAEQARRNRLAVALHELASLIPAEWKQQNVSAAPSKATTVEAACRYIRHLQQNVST
# Experiment: relative binding free energy (BET-seq); higher = weaker binding
# Conditions: reference: library average
row,Sequence,relative binding free energy
1,GGGCTCACGTGTTTTT,0.28 kcal/mol
2,TGAGCCACGTGTGTCG,0 kcal/mol
3,AGTTACACGTGTCCGG,0.17 kcal/mol
4,GTTATCACGTGAGTAA,0.24 kcal/mol
5,TTCGTCACGTGGGGCG,-0.08 kcal/mol
6,AGGTTCACGTGACTTG,0.31 kcal/mol
7,TAGGTCACGTGCTTGG,0.06 kcal/mol
8,CGATGCACGTGTTAGG,-0.01 kcal/mol
9,ATTTACACGTGAGTAA,0.24 kcal/mol
10,GGAGGCACGTGTCTTT,-0.08 kcal/mol
11,TATGTCACGTGTCGCT,0.14 kcal/mol
12,GATGTCACGTGCCTGG,0.09 kcal/mol
13,AAGGACACGTGCGAGG,0.21 kcal/mol
14,GTGTGCACGTGCGGAT,0.05 kcal/mol
15,GAGTACACGTGTTGCT,0.21 kcal/mol
16,TAGGTCACGTGATGGA,0.17 kcal/mol
17,GCTGGCACGTGGTTCG,-0.16 kcal/mol
18,TTGGGCACGTGAGGCT,0.2 kcal/mol
19,GGCAGCACGTGTGGGG,0 kcal/mol
20,GGGGGCACGTGGCAAG,-0.12 kcal/mol
21,ATATGCACGTGCGTGG,-0.09 kcal/mol
22,ATCTACACGTGGTTGT,0.08 kcal/mol
23,AGAGGCACGTGAAATG,0.18 kcal/mol
24,GTGCTCACGTGTGTGT,0.3 kcal/mol
25,TCTTACACGTGGGTTT,0.01 kcal/mol

row,Sequence,relative binding free energy
1,TTTTGCACGTGGATAA,0.01 kcal/mol
2,GGAGGCACGTGGCTGT,-0.22 kcal/mol
3,TGCGACACGTGTGGTA,0.2 kcal/mol
4,TGTGCCACGTGTGGCA,0.05 kcal/mol
5,GTTACCACGTGTTTCT,0.18 kcal/mol
6,CATTACACGTGATTGT,0.14 kcal/mol
7,TAACTCACGTGGATGT,0.23 kcal/mol
8,TCAATCACGTGGGGAT,0.12 kcal/mol
9,GTAAACACGTGTTTGT,0.05 kcal/mol
10,AGGGACACGTGGGTTT,-0.18 kcal/mol
11,GTCGACACGTGATGGG,0.24 kcal/mol
12,GGGTTCACGTGTCTAA,0.32 kcal/mol
13,GGGGACACGTGGAGAA,0.13 kcal/mol
14,GTTCGCACGTGATTGG,0.26 kcal/mol
15,GTGTGCACGTGACGTC,0.09 kcal/mol
16,AGTTTCACGTGTTGTA,0.28 kcal/mol
17,TCCAGCACGTGGTGGT,-0.14 kcal/mol
18,CGTGTCACGTGTGTAC,0.13 kcal/mol
19,GTGTACACGTGTGAAG,0.2 kcal/mol
20,TGAGGCACGTGACGGG,0.06 kcal/mol
21,TGGGGCACGTGTTTCG,-0.05 kcal/mol
22,ACGATCACGTGTGGGT,0.13 kcal/mol
23,TCGGGCACGTGAGGCG,0.23 kcal/mol
24,TATGTCACGTGTCAGG,0.09 kcal/mol
25,TGCCGCACGTGGGCGT,-0.17 kcal/mol

row,Sequence,relative binding free energy
1,TTAGGCACGTGGTGAG,-0.07 kcal/mol
2,CGTGTCACGTGGGAGA,0.09 kcal/mol
3,GTGGACACGTGGATGG,0.04 kcal/mol
4,GAGGACACGTGATAGT,0.17 kcal/mol
5,TGGAACACGTGGCGAG,0 kcal/mol
6,ATGGTCACGTGAGTCA,0.32 kcal/mol
7,AGTTTCACGTGGCTTA,0.17 kcal/mol
8,GTACGCACGTGTTTTT,0.16 kcal/mol
9,TATAGCACGTGGCTTA,-0.09 kcal/mol
10,GGTGGCACGTGTACTA,-0.07 kcal/mol
11,GGCTTCACGTGCGGTA,0.24 kcal/mol
12,TTGGCCACGTGGGCAG,-0.1 kcal/mol
13,ATGGTCACGTGATTAC,0.25 kcal/mol
14,TGGGTCACGTGACACG,0.2 kcal/mol
15,TATTACACGTGTTTGC,0.11 kcal/mol
16,CAGTGCACGTGGGGTG,-0.15 kcal/mol
17,TAGCACACGTGGGCGG,-0.08 kcal/mol
18,ATTTTCACGTGAACGT,0.32 kcal/mol
19,CATTTCACGTGCGTTG,0.39 kcal/mol
20,TTATTCACGTGGCATG,0.29 kcal/mol
21,GTTGGCACGTGGCATA,-0.12 kcal/mol
22,CGAATCACGTGTGGTA,0.26 kcal/mol
23,AGAGGCACGTGTTGCG,-0.18 kcal/mol
24,TTGGGCACGTGTCTAA,-0.06 kcal/mol
25,TTCGTCACGTGGTGAT,0.13 kcal/mol

row,Sequence,relative binding free energy
1,TACAGCACGTGTTTGG,-0.07 kcal/mol
2,TGGGGCACGTGTAGGA,-0.07 kcal/mol
3,AAGTTCACGTGGGCTT,0.21 kcal/mol
4,GGAAACACGTGTGGTC,0.17 kcal/mol
5,ATTTGCACGTGTGGAA,0.04 kcal/mol
6,CGTGACACGTGGATGG,0.18 kcal/mol
7,TGCATCACGTGTTAGT,0.04 kcal/mol
8,GGAATCACGTGCGGTC,0.24 kcal/mol
9,CGGGTCACGTGGATAT,0.1 kcal/mol
10,TACAGCACGTGGAGGG,0.02 kcal/mol
11,GCCGGCACGTGCGGGT,-0.03 kcal/mol
12,GGGTTCACGTGAGGGA,0.51 kcal/mol
13,TTGGACACGTGTTTAT,0.04 kcal/mol
14,TACTGCACGTGTGGTC,0.06 kcal/mol
15,TGTGGCACGTGAGATC,0.2 kcal/mol
16,AGGAGCACGTGTGGAA,-0.08 kcal/mol
17,TTGAGCACGTGCGGTT,-0.11 kcal/mol
18,GGAATCACGTGTTTAT,0.21 kcal/mol
19,CTTGGCACGTGATGTA,-0.09 kcal/mol
20,TCTTCCACGTGGGGTG,-0.11 kcal/mol
21,GGAATCACGTGATGCT,0.37 kcal/mol
22,AGGTACACGTGGGGCA,-0.25 kcal/mol
23,ATGGGCACGTGTCAAG,-0.19 kcal/mol
24,TTTATCACGTGTGTCA,0.08 kcal/mol
25,ATCGGCACGTGAGGTG,0.09 kcal/mol

row,Sequence,relative binding free energy
1,TTTTACACGTGCAGTT,0.16 kcal/mol
2,AGGTCCACGTGATTGT,0.08 kcal/mol
3,CGTTGCACGTGCTTTT,-0.04 kcal/mol
4,GGGTTCACGTGATGAG,0.59 kcal/mol
5,GTTAGCACGTGTGGGG,0.01 kcal/mol
6,GACTTCACGTGTGGTA,0.39 kcal/mol
7,CGAGTCACGTGAGATG,0.38 kcal/mol
8,TGGTCCACGTGTAATT,0.11 kcal/mol
9,TCGATCACGTGTGTGT,0.18 kcal/mol
10,CTGTTCACGTGGATTG,0.24 kcal/mol
11,GTCGTCACGTGGGGGT,0.01 kcal/mol
12,AGTGTCACGTGCTCTG,-0.03 kcal/mol
13,TAGGCCACGTGTAGTG,-0.07 kcal/mol
14,CATTGCACGTGGTTGT,-0.03 kcal/mol
15,ATTATCACGTGCAAGT,0.17 kcal/mol
16,TTATACACGTGCTATG,-0.05 kcal/mol
17,GCAGACACGTGGGGGA,-0.13 kcal/mol
18,TTTTCCACGTGATGAA,0.13 kcal/mol
19,GGAGACACGTGGATAG,0.06 kcal/mol
20,TTTTTCACGTGTCGAG,0.36 kcal/mol
21,GGTATCACGTGTGCAT,0.16 kcal/mol
22,TGGTTCACGTGATTGA,0.38 kcal/mol
23,GAGTGCACGTGCTTGT,-0.16 kcal/mol
24,TAGTCCACGTGTTGTT,0.08 kcal/mol
25,TTGTTCACGTGAAAGG,0.39 kcal/mol

row,Sequence,relative binding free energy
1,AACGGCACGTGGGTCG,-0.25 kcal/mol
2,TGGGTCACGTGGTAAC,0.16 kcal/mol
3,TGGCTCACGTGGAGAT,0.26 kcal/mol
4,TTTTGCACGTGGTAAC,0 kcal/mol
5,GTATTCACGTGTTTAT,0.26 kcal/mol
6,AGGCGCACGTGTATTT,-0.07 kcal/mol
7,TGGAACACGTGAGTTG,0.25 kcal/mol
8,GTTGACACGTGTAGGT,0 kcal/mol
9,AGGGTCACGTGATGCC,0.29 kcal/mol
10,GTGCGCACGTGAAGTT,0.22 kcal/mol
11,TTTGTCACGTGCTGCT,0 kcal/mol
12,TGCTGCACGTGGTGTT,-0.15 kcal/mol
13,TCGAGCACGTGTGCGG,-0.15 kcal/mol
14,CTTTGCACGTGTCTGA,0.13 kcal/mol
15,ACAGACACGTGTGGGA,0.16 kcal/mol
16,TGAAGCACGTGCGGGG,-0.1 kcal/mol
17,ATTCTCACGTGCGTTT,0.18 kcal/mol
18,TAGTACACGTGCGAGG,0.06 kcal/mol
19,GGATGCACGTGTGCGT,0.09 kcal/mol
20,GCATGCACGTGTGTGG,0.02 kcal/mol
21,AGTAGCACGTGGACGT,-0.04 kcal/mol
